In the supplement of paper PMC4604168 (melanoma cell lines):
The other results are listed elsewhere or left out. Most values come without repeats; read them as rough.
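Further: cell number obtained by counting DAPI-stained nuclei in high-throughput microscope images with image analysis software, screen run in 1,536-well plates.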

Each compound was assayed on WM3619 (assay: cell count relative to DMSO control; melanoma cells; higher = more viable cells). Details: library dose: low library concentration; 72 h; first compound 0.4 µM.
`Cn1sc(=O)n(Cc2ccccc2)c1=O` + c1cc(-c2cnn3cc(-c4ccc(OCCN5CCCCC5)cc4)cnc23)ccn1 [Dorsomorphin] (partner dose 0.4 µM) showed a cell count of 115%. For `Cn1sc(=O)n(Cc2ccccc2)c1=O` + COCC[n+]1c2c(n(Cc3cnccn3)c1C)C(=O)c1ccccc1C2=O [YM155] (partner dose 0.0004 µM), the cell count was 99.1%. In the case of `Cn1sc(=O)n(Cc2ccccc2)c1=O` + Nc1nc(F)nc2c1ncn2[C@@H]1O[C@H](CO)[C@@H](O)[C@@H]1O [fludarabine] (partner dose 0.2 µM), the cell count is reported as 85.6%. `CCCCCCCCCCCCCCCCCCOP(=O)([O-])OC1CC[N+](C)(C)CC1` [Perifosine] + CC(=O)O[C@@]12CO[C@@H]1C[C@H](O)[C@@]1(C)C(=O)[C@H](O)C3=C(C)[C@@H](OC(=O)[C@H](O)[C@@H](NC(=O)OC(C)(C)C)c4ccccc4)C[C@@](O)([C@@H](OC(=O)c4ccccc4)[C@H]21)C3(C)C [Docetaxel] (partner dose 0.0001 µM) gave a cell count of 68.4%. Compound `CCCCCCCCCCCCCCCCCCOP(=O)([O-])OC1CC[N+](C)(C)CC1` [Perifosine] + C=C(c1ccc(C(=O)O)cc1)c1cc2c(cc1C)C(C)(C)CCC2(C)C [Bexarotene] (partner dose 2 µM) has a cell count of 86.6%. Work on `Cn1sc(=O)n(Cc2ccccc2)c1=O` + CCN(CC)CCCCNc1ncc2cc(-c3cc(OC)cc(OC)c3)c(NC(=O)NC(C)(C)C)nc2n1 [PD173074] (partner dose 0.1 µM) yielded a cell count of 89.7%.
